According to PubChem BioAssay AID485294 (National Center for Advancing Translational Sciences (NCATS), 2010):
About 150 (0.041%) of roughly 370,000 compounds were called active. Inconclusive means that the source gave no clear call. Such entries were picked first, then a sample of the others. Calls come from the whole dose curve; as a rule, active = well fitted inhibition curve with a large enough effect; inconclusive = small, poorly fitted or top-dose-only effect; inactive = flat fitted curve, though single readings scatter. No potency is given beside an inconclusive call; the fits are too rough.

target: Beta-lactamase (Escherichia coli (strain K12)) (UniProt P00811); test: qHTS Inhibitors of AmpC Beta-Lactamase (assay with detergent); settings: AmpC hydrolysis of nitrocefin, absorbance 480 nm, 0.01% Triton; series mostly up to 114 µM; note: nearly all actives have a fitted effect of over 25% in size
Sequence of UniProt P00811 (P00811 whole entry, looked up): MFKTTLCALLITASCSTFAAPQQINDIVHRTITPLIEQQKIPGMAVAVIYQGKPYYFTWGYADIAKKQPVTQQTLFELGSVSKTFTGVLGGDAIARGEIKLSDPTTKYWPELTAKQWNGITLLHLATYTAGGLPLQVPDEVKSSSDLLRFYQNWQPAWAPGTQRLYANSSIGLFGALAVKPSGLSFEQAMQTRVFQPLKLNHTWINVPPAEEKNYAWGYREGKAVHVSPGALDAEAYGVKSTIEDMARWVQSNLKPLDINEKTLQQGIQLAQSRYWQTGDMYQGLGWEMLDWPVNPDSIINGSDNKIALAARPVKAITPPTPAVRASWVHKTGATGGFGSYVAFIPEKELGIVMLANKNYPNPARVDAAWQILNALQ
How it was run: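 AmpC (5.3 nM in the dispensed reagent) in 20 mM phosphate pH 7.0 with 0.01% (detergent screen) or 0.0001% Triton X-100 was preincubated with compounds for 15 min at room temperature. Nitrocefin was then added from an 800 uM solution, and hydrolysis was followed at 480 nm.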
Potency is the fitted concentration of half-maximal effect; tags give direction and shape of the fitted curve.

SMILES	Potency
CCOc1ccc(S(=O)(=O)c2c(C(=O)c3ccc(C)cc3)cnc3cc4c(cc23)OCCO4)cc1	inactive
CCCCCC(=O)Nc1cccc(C2=NOC3(C2)C[C@@H](C(N)=O)N(C(=O)c2cc([N+](=O)[O-])cc([N+](=O)[O-])c2C)C3)c1 (stereo partly drawn)	inactive
Cc1cccc(C(=O)Nc2sc3c(c2C(=O)NC(C)C)CCCC3)c1	inactive
O=c1[nH]c(=O)n(-c2ccccc2)c(O)c1N=Nc1ccc(Br)cc1	inconclusive [inhibitor, single point]
COc1ccccc1OCc1nnc(SCC(=O)NCc2ccco2)n1Cc1ccco1	inconclusive [inhibitor, partial curve, poor fit]
C[n+]1ccc(C(=O)N/N=C/c2ccco2)cc1	inconclusive [inhibitor, single point]
Cc1ccc[n+](C(C)C(=O)Nc2ccc([N+](=O)[O-])cc2C)c1 (stereo not drawn)	inconclusive [inhibitor, full curve, poor fit]
COc1ccc(CC(=O)Nn2c(-c3ccccc3)nc3ccccc3c2=O)cc1	inconclusive [inhibitor, single point]
COCc1cc(=O)n2[nH]c(C)nc2n1	inconclusive [inhibitor, single point]
O=C(CCNS(=O)(=O)c1cccs1)N1CCCCCC1	inactive
Cc1ncsc1CCSc1nc2ccccc2c(=O)n1C	inconclusive [inhibitor, full curve, poor fit]
CCOc1ccccc1NC(=O)c1cccc(NC(=O)c2ccco2)c1	inconclusive [inhibitor, partial curve, poor fit]
COCCN(C(=O)c1cc(Cl)ccn1)c1c(N)n(Cc2ccccc2)c(=O)[nH]c1=O	inconclusive [inhibitor, single point]
COc1cccc2cc(-c3nc(Nc4cccc(C)c4C)sc3C)c(=O)oc12	inactive
O=C(Cn1ncc2c(=O)oc3ccccc3c21)NCc1cccnc1	inconclusive [inhibitor, single point]
Cn1c(/C(C#N)=C(\O)c2ccc([N+](=O)[O-])s2)nc2ccccc21	inconclusive [inhibitor, full curve, poor fit]
COc1ccc(CSc2nc(C)cc(C)c2S(C)(=O)=O)cc1	inconclusive [inhibitor, full curve, poor fit]
O=C(COCc1cc(-c2ccc(F)cc2)on1)Nc1cc(Cl)ccc1O	inconclusive [inhibitor, single point]
Cc1cc(/C=N/n2c(COc3ccccc3)nc3ccccc3c2=O)c(O)c([N+](=O)[O-])c1	inconclusive [inhibitor, full curve]
Cc1noc(C)c1COC(=O)CCC(=O)c1ccc(F)cc1	inconclusive [inhibitor, full curve, poor fit]
O=C(c1ccc2c(=O)n3c(nc2c1)CCCCC3)N1CCCCC1	inconclusive [inhibitor, full curve, poor fit]

SMILES	Potency
Brc1cccc(CSc2nnc(-c3ccncc3)o2)c1	inconclusive [inhibitor, full curve, poor fit]
O=C(OCC(=O)N1CCCc2ccccc21)c1cc(Cl)ccc1O	inactive
COc1ccc(O[C@H]2C=C[C@@H](c3ccccc3)O[C@@H]2COC(=O)CC/C(C)=N/O[C@@H](C)c2cc(-c3c(C)cc(C)cc3C)no2)cc1	inconclusive [inhibitor, full curve, poor fit]
CC(=O)N1CCN(c2ccc([N+](=O)[O-])c(NCc3cccnc3)c2)CC1	inconclusive [inhibitor, partial curve]
O=C(Nc1ccc2c(c1)OCO2)c1cc(C2CC2)on1	inconclusive [inhibitor, full curve, poor fit]
COc1ccc(/C=C/c2ccc3cccc(O)c3n2)c(OC)c1OC	inactive
NC(=O)NC(=O)COC(=O)c1cccc(S(=O)(=O)N2CCCCCC2)c1	inactive
CC(=O)c1ccccc1C(=O)NCc1cccnc1	inconclusive [inhibitor, full curve, poor fit]
CC(CCc1ccccc1)NC(C)C(O)c1ccc(O)cc1 (stereo not drawn)	inconclusive [inhibitor, partial curve, poor fit]
CCC(c1nnnn1CCc1ccccc1)N(Cc1ccco1)Cc1cc2cccc(C)c2[nH]c1=O (stereo not drawn)	inconclusive [inhibitor, full curve, poor fit]
COc1cc(N(C)C)c([N+](=O)[O-])cc1C(=O)NC(C)CNc1ccc([N+](=O)[O-])cc1Cl (stereo not drawn)	inconclusive [inhibitor, partial curve, poor fit]
COCCOC(=O)C1=C(C)NC2=C(C(=O)CCC2)C1c1ccc2c(c1)OCO2 (stereo not drawn)	inconclusive [inhibitor, full curve, poor fit]
N#CC1=C(N)Oc2n[nH]c(-c3ccccc3)c2C1c1cccc(OC(=O)N2CCOCC2)c1 (stereo not drawn)	inconclusive [inhibitor, full curve, poor fit]
CC(C)NS(=O)(=O)c1ccc(OCC(=O)Nc2ccccc2F)cc1	inconclusive [inhibitor, full curve, poor fit]
O=C(CSc1ccc(-c2ccco2)nn1)NCc1ccc(F)cc1	inactive
COCCCNC(=O)C(=O)Nc1ccc2c(c1)N(S(=O)(=O)c1cccs1)CCC2	inconclusive [inhibitor, single point]
CCOC(=O)c1sc(NN=C(C(=O)OC)C(=O)OC)c(C(=O)OCC)c1C	inactive
Cc1ccc(OCc2cc(C(=O)N(C)Cc3cc(C4CC4)n[nH]3)no2)cc1C	inconclusive [inhibitor, full curve]
CCN(CC)c1ccc2c(O)cc(=O)oc2c1	inconclusive [inhibitor, single point]
CS(=O)(=O)c1ccc(-c2nn[nH]n2)cc1	inconclusive [inhibitor, full curve, poor fit]
C=CCn1c(C)cc(C2=NNC(=NC(C)(C)C)SC2)c1C	inconclusive [inhibitor, partial curve]

SMILES	Potency
COc1ccc(NC(=S)NCCc2ccccc2)c(C)c1	inconclusive [inhibitor, full curve]
COc1ccccc1C(=O)NCC(C)(C)CN=C1NS(=O)(=O)c2ccccc21	inconclusive [inhibitor, full curve, poor fit]
N#Cc1ccc(Oc2ccc(S(=O)(=O)N3CCOCC3)cn2)cc1	inconclusive [inhibitor, full curve, poor fit]
Cc1ccc(-c2nc(C=Nc3ccccc3)c(O)o2)cc1	inactive
CCOC(=O)/C=C/C(=O)OCC(=O)NCc1ccccc1	inconclusive [inhibitor, full curve, poor fit]
Cc1ccc(NC(=S)NNC(=O)Cn2nc(C(F)F)cc2C(F)F)cc1	inconclusive [inhibitor, partial curve, poor fit]
O=C(NCCSc1c[nH]c2ccccc12)C1CC1	inconclusive [inhibitor, full curve, poor fit]
CCOC(=O)C1=C(O)/C(=C\c2ccc(CNC(=O)C(=O)Nc3ccc(C)c(C)c3)o2)N=C1C	inconclusive [inhibitor, full curve, poor fit]
CCc1ccc(OCC2c3cc(OC)c(OC)cc3CCN2C(=S)NCCOC)cc1 (stereo not drawn)	inconclusive [inhibitor, single point]
OC1(CNCc2cn[nH]c2-c2cc3ccccc3o2)CCCCC1	inconclusive [inhibitor, full curve, poor fit]
CSc1nc(C)cc(NC(N)=O)n1	inactive
COc1ccccc1N(CCC#N)C(=O)COC(=O)CCC(=O)c1ccc(F)cc1	inconclusive [inhibitor, full curve, poor fit]
Cc1cc(C)c2[nH]c(=O)c(C(c3nnnn3Cc3ccc4c(c3)OCO4)N3CCC(C)CC3)cc2c1 (stereo not drawn)	inconclusive [inhibitor, full curve, poor fit]
Cn1cc(CN2CCC(C(=O)Nc3cccc(-c4cccc(F)c4)c3)CC2)cn1	inactive
CCOC(=O)c1cccc(NS(=O)(=O)c2ccc3[nH]c4c(c3c2)CCCC4)c1	inactive
Cc1cc(NC(=O)CCC(=O)N(c2ccc(F)cc2)C2(C(=O)NC3CCCCC3)CCCC2)no1	inconclusive [inhibitor, full curve, poor fit]
O=C(NCCN1CCOCC1)c1cccc(S(=O)(=O)N(Cc2ccccc2)c2ccccc2)c1	inconclusive [inhibitor, full curve, poor fit]
Cc1ccc(S(=O)(=O)N2CCN(C)CC2)cc1	inconclusive [inhibitor, full curve, poor fit]
CCc1ccc(NC(=O)NCc2cccnc2)cc1	inconclusive [inhibitor, full curve, poor fit]
C/C(=N\NC(=S)NCCc1ccccc1)c1ccc(Cl)cc1	inconclusive [inhibitor, full curve, poor fit]
COCCNC(=O)CN(C)S(=O)(=O)c1ccc(Br)cc1	inconclusive [inhibitor, full curve, poor fit]
